Screen size: about 220,000 compounds; about 5,700 (2.6%) were called active. Inconclusive means that the source gave no clear call. Such entries were picked first, then a sample of the others. Calls follow the shape of the dose curve; as a rule, active = well fitted inhibition curve with a large enough effect; inconclusive = small, poorly fitted or top-dose-only effect; inactive = no such curve, though single readings can be large or run the other way. Where the call is inconclusive, the potency comes from a doubtful curve fit.
biological target: Lysine-specific demethylase 5B (Homo sapiens) (UniProt Q9UGL1); test: Primary screen for KDM5B Histone Demethylases FDH-coupled qHTS; conditions: FDH-coupled NADH fluorescence (FDH is formaldehyde dehydrogenase); series mostly up to 57.7 µM; also: nearly all actives have a fitted effect of over 70% in size
Procedure, shortened: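 qHTS format, multiple compound concentrations. Buffer 50 mM HEPES pH 7.5/0.01% Tween-20; 200 nM KDM5BΔAP final; 10 min compound preincubation; substrate-mix levels 12.5 µM peptide, 25 µM α-KG, 0.25 mM NAD⁺; 30 min RT; ΔRFU.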
Potency is read from the fitted curve at half-maximal effect; tags tell the direction and shape of the fitted curve.

UniProt Q9UGL1, sequence (Q9UGL1 whole entry, looked up): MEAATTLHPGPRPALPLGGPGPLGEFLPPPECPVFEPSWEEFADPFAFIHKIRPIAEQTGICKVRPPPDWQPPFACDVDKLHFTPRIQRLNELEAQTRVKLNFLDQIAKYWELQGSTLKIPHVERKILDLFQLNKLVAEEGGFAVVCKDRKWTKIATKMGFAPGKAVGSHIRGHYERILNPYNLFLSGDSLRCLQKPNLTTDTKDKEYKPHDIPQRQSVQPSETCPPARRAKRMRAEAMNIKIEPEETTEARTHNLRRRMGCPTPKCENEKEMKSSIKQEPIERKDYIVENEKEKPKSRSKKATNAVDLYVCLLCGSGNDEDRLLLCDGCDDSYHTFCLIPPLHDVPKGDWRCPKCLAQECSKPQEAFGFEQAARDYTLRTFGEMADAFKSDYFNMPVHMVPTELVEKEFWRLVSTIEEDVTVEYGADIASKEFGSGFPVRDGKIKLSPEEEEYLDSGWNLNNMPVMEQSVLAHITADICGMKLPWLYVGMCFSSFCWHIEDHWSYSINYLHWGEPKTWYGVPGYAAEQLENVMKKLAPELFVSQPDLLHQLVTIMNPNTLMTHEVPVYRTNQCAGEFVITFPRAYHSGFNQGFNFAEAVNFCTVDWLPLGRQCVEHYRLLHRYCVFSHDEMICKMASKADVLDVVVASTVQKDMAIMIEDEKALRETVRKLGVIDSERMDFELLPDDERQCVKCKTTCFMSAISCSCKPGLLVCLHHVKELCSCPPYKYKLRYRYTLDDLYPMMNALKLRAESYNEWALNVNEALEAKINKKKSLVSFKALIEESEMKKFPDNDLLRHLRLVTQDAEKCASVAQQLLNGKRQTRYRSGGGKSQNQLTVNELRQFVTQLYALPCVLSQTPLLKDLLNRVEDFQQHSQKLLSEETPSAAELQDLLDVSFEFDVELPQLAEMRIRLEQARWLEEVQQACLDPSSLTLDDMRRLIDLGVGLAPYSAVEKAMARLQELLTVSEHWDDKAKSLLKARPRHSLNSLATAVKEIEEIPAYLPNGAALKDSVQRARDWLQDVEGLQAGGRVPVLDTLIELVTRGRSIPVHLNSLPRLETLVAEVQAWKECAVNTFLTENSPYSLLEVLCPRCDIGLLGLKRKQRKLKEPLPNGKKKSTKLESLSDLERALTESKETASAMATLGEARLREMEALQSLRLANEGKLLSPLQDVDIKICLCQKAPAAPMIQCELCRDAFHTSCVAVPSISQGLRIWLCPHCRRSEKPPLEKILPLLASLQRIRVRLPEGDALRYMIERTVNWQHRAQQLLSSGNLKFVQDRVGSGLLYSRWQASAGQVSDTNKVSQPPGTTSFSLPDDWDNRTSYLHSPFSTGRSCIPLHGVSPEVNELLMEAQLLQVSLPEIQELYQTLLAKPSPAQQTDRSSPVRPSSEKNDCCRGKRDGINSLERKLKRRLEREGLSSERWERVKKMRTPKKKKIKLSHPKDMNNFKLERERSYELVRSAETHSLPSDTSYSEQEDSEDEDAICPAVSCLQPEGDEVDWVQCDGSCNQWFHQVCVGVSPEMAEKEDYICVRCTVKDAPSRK

SMILES | Potency
Cc1ccc(C)c(NC(=O)c2cnc(N3CCCC3)nc2C)c1 | inconclusive: 35.5 µM [inhibitor, single point]
O=C(Cn1ccn2nc3c(c2c1=O)CCCCC3)Nc1ccccc1C(F)(F)F | inconclusive: 35.5 µM [inhibitor, single point]
CC(C)S(=O)(=O)N1CCC(c2nnc3n2CCNC3)CC1 | inconclusive: 63.1 µM [inhibitor, partial curve, poor fit]
COc1ccc(NC(=O)c2ccc3c(c2)OCCN(C2CCC2)C3)cn1 | inactive
CCOc1ccccc1C(=O)Nc1cccc(-c2nc3ccccc3s2)c1 | inconclusive: 5.01 µM [inhibitor, partial curve, poor fit]
CC(C)C[C@@H](NC(=O)C1=C[C@@H](NC(=O)CC(C)(C)C)[C@@H](O)[C@H](O)C1)C(N)=O | inconclusive: 31.6 µM [inhibitor, single point]
COc1ccc(C2CC(=O)Nc3c2c(C)nn3-c2nncc(-c3ccccc3)n2)c(OC)c1OC (stereo not given) | inconclusive: 28.2 µM [inhibitor, partial curve, poor fit]
O=C(Nc1ccsc1)N[C@H]1C[C@H]2C(=O)NC[C@@H](CCC(=O)N3CCN(c4ccccn4)CC3)N2C1 | inconclusive: 31.6 µM [inhibitor, single point]
COc1cc(OC)cc(C(=O)Nc2nnc(C(F)(F)F)s2)c1 | inactive
CN1C(=O)C(c2ccccc2)CC12CCN(C(=O)c1ccc(C#N)cc1)CC2 (stereo not given) | inactive
O=C(CCC1CCN(S(=O)(=O)c2cccc(F)c2)CC1)N1CCc2ccccc2C1 | inconclusive: 14.1 µM [inhibitor, partial curve, poor fit]
CCOC(=O)c1cccc(NC(=O)COc2ccc3c(C)cc(=O)oc3c2)c1 | inconclusive: 17.8 µM [inhibitor, partial curve, poor fit]
Cc1ccc(NC(=O)c2ccoc2)cc1I | inactive
CCOC(=O)c1ccccc1NC(=O)CSc1ccc(-c2sc(C)nc2C)nn1 | inconclusive: 31.6 µM [inhibitor, single point]
O=C(Nc1ccc2c(c1)CCC2)N1CCc2c(nc3cc(-c4ccccc4)[nH]n3c2=O)C1 | active: 11.2 µM
CS(=O)(=O)Oc1ccc2c(c1)O/C(=C\c1ccc(-c3ccccc3)cc1)C2=O | inactive
Oc1ccc(C2(c3ccccc3)CCCCC2)cc1 | inconclusive: 25.1 µM [inhibitor, partial curve, poor fit]
Cc1nnc(-c2cc(-c3cccc(N(C)C)c3)ccn2)n1Cc1ccncc1 | inactive
O=c1c2c(nc3cc(-c4ccccc4)[nH]n13)CN(S(=O)(=O)Cc1cccc(F)c1)CC2 | inconclusive: 25.1 µM [inhibitor, partial curve, poor fit]
COc1ccc(-c2cc(C(=O)NCc3cc(C)on3)c3c(c2)N(C)CCO3)cc1OC | active: 35.5 µM

SMILES | Potency
Cc1cccc(N(C)C(=O)COC(=O)c2ccc(F)cc2)c1 | inactive
O=C(CN1c2cccc3cccc(c23)S1(=O)=O)Nc1ccc(S(=O)(=O)N2CCCC2)cc1 | inconclusive: 31.6 µM [inhibitor, partial curve, poor fit]
CCO[C@H]1CN(C2CCN(c3ccc4c(c3)CCC4)CC2)C[C@@H]1O | inconclusive: 20 µM [inhibitor, partial curve, poor fit]
CC1(COCC2CC2)COc2ccc(C(=O)Nc3ccc(Cl)cc3)cc2N1 (stereo not given) | inconclusive: 22.4 µM [inhibitor, partial curve, poor fit]
NC(=S)NC(c1ccccc1)c1ccncc1 (stereo not given) | inconclusive: 31.6 µM [inhibitor, partial curve, poor fit]
CCOC(=O)c1c(C)sc2c1OC(N)=C(C#N)C21C(=O)N(Cc2cccc(F)c2)c2ccccc21 (stereo not given) | inactive
O=C(c1cccc(F)c1)N1CCC(Oc2ccccc2-c2nc(C3CCOCC3)no2)C1 (stereo not given) | inconclusive: 11.2 µM [inhibitor, partial curve, poor fit]
O=C(c1ccc2[nH]ccc2c1)N1CC(CO)C2(CCNCC2)C1 (stereo not given) | inconclusive: 25.1 µM [inhibitor, partial curve, poor fit]
CC1CCN(S(=O)(=O)c2ccc3c(c2)N(C)C(=O)CC(=O)N3C)CC1 | inconclusive: 35.5 µM [inhibitor, single point]
CCOC(=O)[C@]12CCCCC/C=C\1N(CCc1ccc(Cl)cc1)C(=O)[C@H]2CC(=O)NCc1ccc(C)o1 | inconclusive: 39.8 µM [inhibitor, single point]
O=C(NC1CCCN(c2cc(-c3ccccc3)[nH]n2)C1)c1nccc2ccccc12 (stereo not given) | inconclusive: 20 µM [inhibitor, partial curve, poor fit]
Cc1ccc(-c2nnc(SCc3ccccc3)o2)cc1 | inconclusive: 14.1 µM [inhibitor, partial curve, poor fit]
COc1cccc(NC(=O)C(C)n2c(=O)cc(C(F)(F)F)c3c(C)nn(C)c32)c1 (stereo not given) | inconclusive: 35.5 µM [inhibitor, single point]
CC(C)c1ccc(C(=O)NCCCNC(=O)c2cc3ccccc3[nH]2)cc1 | inactive
CCCNC(=O)CC(c1ccc(OC)c(OC)c1)c1c[nH]c2c(CC)cccc12 (stereo not given) | inactive
CCc1ccc(-c2n[nH]c(=O)c3ccccc23)cc1 | inactive
O=C(NC1CC1)c1ccc2c(c1)C1(CCN(CC3CC3)C1)CN2Cc1ccccc1 (stereo not given) | active: 31.6 µM
COc1cccc(OCC(O)CN2CCN(c3ccccc3)CC2)c1 (stereo not given) | inconclusive: 25.1 µM [inhibitor, partial curve, poor fit]
C/C(=N\NC(=O)C1CC1c1ccccc1)c1ccc2c3c(cccc13)CC2 (stereo not given) | inconclusive: 39.8 µM [inhibitor, single point]
Cc1ccc(C)c(N2CCN(CCCNC(=O)c3cnn(-c4cccc(Cl)c4)c3C3CCN(C(=O)OC(C)(C)C)CC3)CC2)c1 | inconclusive: 31.6 µM [inhibitor, partial curve, poor fit]

— PubChem BioAssay AID1347165 (National Center for Advancing Translational Sciences (NCATS), 2019)
